Reference: the supplement of paper PMC4967469
The IC50 comes from the fitted curve, where viability falls to half of the control; where the fit passes the top or lowest dose, that dose stands as a limit. AUC sums up the same curve from the lowest dose to the 256-fold higher top dose; the more sensitive the line, the further below 1. For part of these data: Any top dose called inferred is not printed in the source and was worked back from the curve model. For part of these data: Where an entry number is given, a second screen of the drug exists; the two often differ.

Assays:
Assay in all cases: Viability of human cancer cell lines after 72 h of drug (GDSC screen)
VNLG/124 = compound: CCCC(=O)OCc1ccc(OC(=O)/C=C(C)/C=C/C=C(C)/C=C/C2=C(C)CCCC2(C)C)cc1 [VNLG/124]; details: top dose 5.12 µM; top dose inferred
Experimental: (§1)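 Human cancer cell lines in 384-well plates, medium with 10% serum, drug for 72 h over a 256-fold dose range (nine 2-fold or five 4-fold steps up to the top dose). Adherent lines were fixed and stained with the nucleic acid dye Syto60, suspension lines read with resazurin; signal relative to control wells, capped at 0 and 100%. One two-parameter sigmoid per drug and line, fitted in a mixed model over all curves with the slope shared within a line.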

Bleomycin = compound: Cc1c(N)nc([C@H](CC(N)=O)NC[C@H](N)C(N)=O)nc1C(=O)N[C@H](C(=O)N[C@H](C)[C@@H](O)[C@H](C)C(=O)N[C@H](C(=O)NCCc1nc(-c2nc(C(=O)NCCC[S+](C)C)cs2)cs1)[C@@H](C)O)[C@@H](OC1OC(CO)C(O)C(O)C1OC1OC(CO)C(O)C(OC(N)=O)C1O)c1cnc[nH]1 [Bleomycin]
Experimental: as §1

OSI-930 = compound: O=C(Nc1ccc(OC(F)(F)F)cc1)c1sccc1NCc1ccnc2ccccc12 [OSI-930]; details: top dose 10.24 µM
Experimental: as §1

Tamoxifen = compound: CC/C(=C(\c1ccccc1)c1ccc(OCCN(C)C)cc1)c1ccccc1 [Tamoxifen]; details: top dose 5 µM
Experimental: as §1

Elesclomol = compound: CN(NC(=O)CC(=O)NN(C)C(=S)c1ccccc1)C(=S)c1ccccc1 [Elesclomol]; details: top dose 0.2 µM; top dose inferred
Experimental: as §1

NSC-87877 = compound: O=S(=O)(O)c1ccc2cc(N=Nc3cc(S(=O)(=O)O)c4cccnc4c3O)ccc2c1 [NSC-87877]; details: top dose 16 µM; top dose inferred
Experimental: as §1

LAQ824 = compound: O=C(/C=C/c1ccc(CN(CCO)CCc2c[nH]c3ccccc23)cc1)NO [LAQ824]; details: top dose 1.024 µM; top dose inferred
Experimental: as §1

Masitinib = compound: Cc1ccc(NC(=O)c2ccc(CN3CCN(C)CC3)cc2)cc1Nc1nc(-c2cccnc2)cs1 [Masitinib]; details: top dose 20 µM
Experimental: as §1

BX-912 = compound: O=C(Nc1cccc(Nc2ncc(Br)c(NCCc3cnc[nH]3)n2)c1)N1CCCC1 [BX-912]; details: top dose 10.24 µM; top dose inferred
Experimental: as §1

[1] = top dose 50 µM, screen: GDSC drug entry 1378, top dose inferred
[2] = top dose 64 µM, screen: GDSC drug entry 190

| Cell Line | AUC (VNLG/124) | IC50 (VNLG/124) | AUC (Bleomycin; [1]) | IC50 (Bleomycin; [1]) | AUC (Bleomycin; [2]) | IC50 (Bleomycin; [2]) | AUC (OSI-930) | IC50 (OSI-930) | AUC (Tamoxifen) | IC50 (Tamoxifen) | AUC (Elesclomol) | IC50 (Elesclomol) | AUC (NSC-87877) | IC50 (NSC-87877) | AUC (LAQ824) | IC50 (LAQ824) | AUC (Masitinib) | IC50 (Masitinib) | AUC (BX-912) | IC50 (BX-912) |
| --- | --- | --- | --- | --- | --- | --- | --- | --- | --- | --- | --- | --- | --- | --- | --- | --- | --- | --- | --- | --- |
| HuO-3N1 (osteosarcoma, adherent) | 0.951 | > 5.12 µM | 0.807 | 36.2 µM | 0.853 | > 64 µM | 0.975 | > 10.2 µM | 0.971 | > 5 µM | 0.61 | 0.0277 µM | 0.981 | > 16 µM | 0.585 | 0.118 µM | 0.944 | > 20 µM | 0.849 | > 10.2 µM |
| IMR-5 (neuroblastoma, adherent) | 0.944 | > 5.12 µM | 0.085 | < 0.195 µM | 0.085 | < 0.25 µM | 0.969 | > 10.2 µM | 0.982 | > 5 µM | 0.977 | > 0.2 µM | 0.987 | > 16 µM | 0.48 | 0.0569 µM | 0.877 | 14.7 µM | 0.276 | 0.168 µM |
| IPC-298 (melanoma, adherent) | 0.987 | > 5.12 µM | 0.574 | 4.97 µM | 0.403 | 2.17 µM | 0.966 | > 10.2 µM | 0.986 | > 5 µM | 0.675 | 0.038 µM | 0.985 | > 16 µM | 0.58 | 0.105 µM | 0.882 | > 20 µM | 0.958 | > 10.2 µM |
| IST-SL1 (small cell lung carcinoma, semi-adherent) | 0.982 | > 5.12 µM | 0.892 | > 50 µM | 0.807 | 33.9 µM | 0.974 | > 10.2 µM | 0.98 | > 5 µM | 0.727 | 0.0563 µM | 0.982 | > 16 µM | 0.421 | 0.0386 µM | 0.753 | 6.87 µM | 0.493 | 0.612 µM |
| JHH-2 (liver, adherent) | 0.983 | > 5.12 µM | 0.649 | 8.35 µM | 0.977 | > 64 µM | 0.937 | > 10.2 µM | 0.977 | > 5 µM | 0.604 | 0.0246 µM | 0.891 | > 16 µM | 0.72 | 0.285 µM | 0.91 | > 20 µM | 0.902 | > 10.2 µM |
| JHH-4 (liver, adherent) | 0.971 | > 5.12 µM | 0.681 | 9.98 µM | 0.598 | 7.42 µM | 0.987 | > 10.2 µM | 0.983 | > 5 µM | 0.838 | 0.135 µM | 0.971 | > 16 µM | 0.559 | 0.0928 µM | 0.888 | > 20 µM | 0.967 | > 10.2 µM |
